In all, about 110,000 compounds were measured (“z-score”: median about -0.1, highest 2% from about 2 on). Some of the results follow. Calls of active or inactive are those of the source.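 Rule for the calls: active = z-score in the third read window above 3 or below -3; inactive = the rest.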

The test concerns the target Metabotropic glutamate receptor 8 (Rattus norvegicus) (UniProt P70579). The test is described as follows: rat mGluR8 modulators via GIRK flux, primary screen, cell-based, thallium flux, HTS (AID 488969). As to conditions: HEK293 rat mGluR8, GIRK (G protein-gated inwardly rectifying potassium channel) thallium flux, FluoZin2; at 10 µM; stronger effect = higher value; submaximal glutamate (EC20) added with thallium.
UniProt P70579, sequence (P70579 whole entry, looked up): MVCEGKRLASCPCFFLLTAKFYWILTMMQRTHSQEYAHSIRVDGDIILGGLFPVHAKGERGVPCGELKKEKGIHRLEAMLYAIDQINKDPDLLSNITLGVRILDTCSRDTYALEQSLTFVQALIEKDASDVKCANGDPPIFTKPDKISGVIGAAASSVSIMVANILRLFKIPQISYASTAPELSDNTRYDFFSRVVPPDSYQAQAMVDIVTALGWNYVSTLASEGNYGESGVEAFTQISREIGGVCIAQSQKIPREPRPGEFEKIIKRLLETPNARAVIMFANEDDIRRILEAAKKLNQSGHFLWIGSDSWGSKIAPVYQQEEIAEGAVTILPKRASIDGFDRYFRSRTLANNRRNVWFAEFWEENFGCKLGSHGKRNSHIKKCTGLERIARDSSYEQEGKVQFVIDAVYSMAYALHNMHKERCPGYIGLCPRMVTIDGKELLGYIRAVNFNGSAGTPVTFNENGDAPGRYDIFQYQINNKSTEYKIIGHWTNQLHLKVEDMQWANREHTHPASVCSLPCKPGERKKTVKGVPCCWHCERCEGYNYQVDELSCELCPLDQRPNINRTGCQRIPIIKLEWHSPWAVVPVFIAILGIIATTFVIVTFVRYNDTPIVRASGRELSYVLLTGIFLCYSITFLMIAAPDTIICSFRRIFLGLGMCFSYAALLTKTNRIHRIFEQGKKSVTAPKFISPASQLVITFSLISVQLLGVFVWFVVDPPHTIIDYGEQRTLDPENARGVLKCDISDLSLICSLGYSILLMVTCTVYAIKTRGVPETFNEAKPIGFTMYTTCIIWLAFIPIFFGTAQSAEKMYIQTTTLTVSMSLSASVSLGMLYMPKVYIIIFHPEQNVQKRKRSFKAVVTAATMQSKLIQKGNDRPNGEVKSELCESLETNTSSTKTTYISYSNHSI
`COc1ccc(CNC(=O)COC(=O)c2cnccn2)cc1`: the z-score was 0.357.

Consider `CCOC(=O)CSc1nc2cccnc2n1-c1ccc(F)cc1`, for which the z-score was -1.83.

`CCOC(=O)C1CCN(C(=O)CN(c2ccc(OC)cc2)S(=O)(=O)c2c(C)noc2C)CC1` registered a z-score of 0.0476.

Take `CCn1nc(CCC(=O)O)c2ccccc2c1=O`: the z-score was -0.706.

For the compound `Fc1cccc(Cl)c1CNCc1ccccc1Cl`, the z-score was -0.0951.

`Clc1ccc(Cc2noc(CN3CCN(c4ccccc4)CC3)n2)c(Cl)c1` returned a z-score of -0.138.

With `CN(C)CCNC(=O)CCCNC(=O)Cn1cnc2sc3c(c2c1=O)CCCC3`, the z-score was determined as 0.58.

Compound `CN(C)/N=C/c1c(O)ccc2ccccc12` yielded a z-score of -0.163.

Compound `Cc1ccnc(NC(=O)c2ccc(NC(=O)c3ccco3)cc2)c1` had a z-score of -0.719.

`Cc1ccccc1Cn1nnc(-c2cccc(C(=O)O)c2)n1` displayed a z-score of -0.109.

Turning to `CCCCOc1ccc(-c2nnn(CC(=O)Nc3ncc(CC(=O)OCC)s3)n2)cc1`, the z-score worked out at 0.0365.

As to `COc1cc(/C=N/NC(=O)Nc2ccccc2)ccc1OC(C)=O`, the z-score is -0.111.

The compound `O=C(COc1ccccc1)Nc1ccccc1Oc1ccccc1` registered a z-score of -0.146.

`COC(=O)c1cc2nc(-c3ccc(OC)c(OC)c3)cc(C(F)(F)F)n2n1`: the z-score is -0.569.

Consider `CCOc1ccc(Oc2nc(Nc3ccc(C)cc3)nc(N(C)C)n2)nn1`, for which the z-score was -0.393.

On to `O=C(Nc1ccc(F)cc1)N1CCN2C(=O)c3ccccc3C12c1ccccc1` (stereo unspecified), for which the z-score was -0.00996.

`O=C(c1c[nH]c(=O)n(-c2ccccc2)c1=O)N1CCc2ccccc21` showed a z-score of 0.262.

`O=C(c1nn2c(C(F)(F)F)cc(-c3ccccc3)nc2c1Cl)N1CCOCC1` came in with a z-score of -0.565.

With `Cc1ccc(-c2nc(CS(=O)CC(=O)NC3CCCC3)c(C)o2)cc1` (stereo unspecified), the z-score came out at 0.11.

Take `COc1ccc(/C=N/NC(=O)CSc2n[nH]c(=O)[nH]c2=O)cc1`: the z-score came to 0.305.

In the case of `Cc1ccc(Nc2nc(N)nc(CSC(=S)N3CCOCC3)n2)c(C)c1`, the z-score is 0.00021.

With `C=CCn1c(CSc2nc3ccccc3s2)nnc1SCC(=O)NCc1ccco1`, the z-score is -0.276.

For the compound `CCCS(=O)(=O)N1CCCC(C(=O)NCCCN(C)c2ccccc2)C1` (stereo unspecified), the z-score stood at 0.0444.

As to `CCOc1ccc(Cn2ccnc2)cc1[N+](=O)[O-]`, the z-score amounted to 0.0279.

Turning to `CCNC(=O)CC1C(=O)N(CC)C(=S)N1NC(=O)c1ccc(Cl)cc1` (stereo unspecified), the z-score was -0.344.

The compound `O=C(NC1CCc2ccccc21)C1CCN(S(=O)(=O)c2ccc(-n3cnnn3)cc2)CC1` (stereo unspecified) registered a z-score of 0.204.

With `CCOC(=O)COc1ccc2nsnc2c1Cl`, the z-score turned out to be 0.0791.

The compound `CCOc1ccc2c(c1)s/c(=N\S(=O)(=O)c1ccc(OC)cc1)n2C(F)F` gave a z-score of -0.0602.

`CCCCCCCOC(=O)C[N+](C)(C)CCOC1CC2CCC1(C)C2(C)C` (stereo unspecified) came in with a z-score of 0.193.

`Cc1nc(S(=O)(=O)c2ccc(Cl)cc2)nc2c1CCC2` returned a z-score of -0.176.

The compound `CCCCN(CCCC)c1nc(OC)nc(-n2nnc(C(C)=O)c2C)n1` displayed a z-score of -1.5.

The compound `Cc1ccc(-n2nnnc2SCC(=O)c2ccc3c(c2)NC(=O)CO3)c(C)c1` had a z-score of -0.0959.

The compound `COc1ccc2c(c1)c(C(=O)CN1CCOCC1)c(C)n2C` showed a z-score of -0.445.

On to `CC(/C=C/c1ccc(OCc2ccccc2)cc1)=N\O`, for which the z-score came to 0.113.

Consider `CCOc1ccccc1C(=O)OCC(=O)Nc1cc(Cl)ccc1Oc1ccccc1`, for which the z-score was -0.66.

Compound `Cc1ccc(CCNC(=O)C2CCCN(S(=O)(=O)c3cnc[nH]3)C2)cc1` (stereo unspecified) had a z-score of -0.182.

On to `COCc1cc(=O)[nH]c(Nc2nc3ccc(C)cc3o2)n1`, for which the z-score was -0.654.

The compound `O=C(CSc1nnc(-c2cccnc2)n1Cc1ccco1)c1ccccc1` returned a z-score of -0.0629.

In turn, `O=C(O)C1CCCCC1C(=O)Nc1ccccn1` (stereo unspecified) showed a z-score of 0.212.

The compound `COc1cccc(Cn2c(NCC(C)C)nc3c2c(=O)n(C)c(=O)n3C)c1` had a z-score of -0.387.

As to `CCOC(=O)c1c(-c2ccccc2)oc2ccc(OC)cc12`, the z-score stood at 0.0333.

Turning to `CN1c2ccsc2C(O)=C(C(=S)Nc2ccc(F)c(Cl)c2)S1(=O)=O`, the z-score is 0.653.

Regarding `COc1cccc(-c2cnc(OC(C)(C)C)nc2OC(C)(C)C)c1`, the z-score was -0.0368.

As for `CSc1nc(Cl)c(Cc2ccc(OCC(C)C)cc2)c(N2CCOCC2)n1`, the z-score is -0.0578.

Compound `Cc1cccc(N(C(=O)CCC(=O)Nc2cccnc2)C(C(=O)NC2CCCC2)c2ccncc2)c1` (stereo unspecified) came in with a z-score of 0.41.

In turn, `COc1cc(Br)cc(CN2CCN(C/C=C/c3ccccc3)CC2)c1O` displayed a z-score of 0.0564.

Compound `Cc1ccc(S(=O)(=O)NCc2ccc(C(=O)NCCCN3CCN(C)CC3)cc2)cc1` yielded a z-score of -0.409.

As to `Cc1cc(C)c2nc(C(F)(F)F)nc(N3CC(C)OC(C)C3)c2c1` (stereo unspecified), the z-score is -0.0212.

`CSc1nc2oc3c(c2c2nncn12)CC(C)(C)SC3` yielded a z-score of -0.451.

Regarding `CC(=O)NC(c1ccc(F)cc1)c1cccnc1` (stereo unspecified), the z-score amounted to 0.763.

Take `Cc1ccc(-c2csc3nc(SCC(=O)N(C)C)n(Cc4ccccc4)c(=O)c23)cc1`: the z-score is -1.11.

Turning to `N#CC1=C(SCc2ccccc2)NC(=O)CC1c1ccccc1` (stereo unspecified), the z-score is -0.391.

In turn, `O=C(/C=C/c1ccc(F)cc1)NC(=S)Nc1ccccc1C(=O)NC1CCCCC1` gave a z-score of -0.118.

Compound `Cc1ccc2nc(NC3=NCN(Cc4ccc5c(c4)OCO5)CN3)nc(C)c2c1` returned a z-score of 0.799.

`COc1cc(C)c(Cl)cc1S(=O)(=O)N(C)C` displayed a z-score of -0.812.

Compound `CCOC(=O)c1sc(NC(=O)CCCn2nc([N+](=O)[O-])c(Cl)c2C)c(C(=O)OCC)c1C` registered a z-score of 0.013.

For the compound `COc1ccc(-c2onc3ccc(Cl)cc23)cc1OC`, the z-score worked out at 0.79.

In the case of `COCCCn1c(SCC(=O)NCc2ccccc2)nc2ccccc2c1=O`, the z-score came to 0.859.

`Nc1n[nH]c(-c2ccccc2[N+](=O)[O-])n1` gave a z-score of -0.817.

`CCS(=O)(=O)N1CCN(c2ccc([N+](=O)[O-])c(NCc3ccccc3)c2)CC1`: the z-score is -0.422.

`Cc1ccc(NC2=NC(C(=O)Nc3ccc(C)c(C)c3)CC(=O)N2)cc1` (stereo unspecified) came in with a z-score of 0.0681.

Regarding `CC1CCc2nn(CC(=O)NCc3ccc(F)cc3)cc2C1` (stereo unspecified), the z-score is -1.72.

Take `O=C(NCC1CCS(=O)(=O)C1)NCC1CCS(=O)(=O)C1` (stereo unspecified): the z-score is 0.468.

The compound `c1ccc(C(c2nnnn2C2CCCC2)N2CCN(c3nc4ccccc4s3)CC2)cc1` (stereo unspecified) yielded a z-score of 0.0979.

As for `CCC1CCCN1Cn1cnc2c([nH]c3ccc(OC)cc32)c1=O` (stereo unspecified), the z-score was active: 6.77.

Compound `Cc1cc(OC(=O)c2c(Cl)cc(Cl)cc2Cl)nc(C)n1` had a z-score of -0.00584.

In turn, `Cc1ccc2nc(NC(=O)CSc3nc4ccccc4o3)sc2c1` yielded a z-score of 0.182.

Compound `Cc1cccc2cc(CN(Cc3ccco3)C(=O)NC3CCCCC3)c(=O)[nH]c12` had a z-score of -0.979.

`c1ccc2c(c1)nc(NCCN1CCOCC1)c1nncn12` returned a z-score of 0.494.

In the case of `CCOC(=O)CSC1=NC(=O)/C(=C\c2ccc(OC(C)=O)cc2)S1`, the z-score was -0.9.

With `O=C1C2CC=CCC2C(=O)N1c1ccc(Cc2ccncc2)cc1` (stereo unspecified), the z-score was -0.0342.

`COc1ccccc1Cn1c(=S)[nH]c2cc(C(=O)N3CCN(C)CC3)ccc2c1=O` yielded a z-score of 1.08.

Turning to `CCN(CC)c1nc(C)c2c(c1C#N)CC(C)(C)OC2`, the z-score was -0.441.

Regarding `COC(=O)c1c(NS(=O)(=O)c2cccs2)sc2c1CCCC2`, the z-score is active: 6.32.

For `COc1ccc(-c2[nH]ncc2/C=N\NS(=O)(=O)c2ccc(Cl)cc2)cc1`, the z-score was -0.334.

`COc1cc(OC)nc(NC(=O)CSc2nc3ccccc3o2)n1` had a z-score of -0.294.

`COc1ccccc1CNC(=O)COC(=O)/C=C/c1cccs1`: the z-score was 0.174.

Take `CC(=O)NC(Cc1c[nH]c2ccccc12)C(=O)OCC(=O)Nc1cc(C)on1` (stereo unspecified): the z-score is -2.49.

As for `O=C(CSCc1cccc(Cl)c1)Nc1ccccc1-c1ccccc1`, the z-score is -0.137.

Compound `Cc1ccc(NC2=CC(=O)C(=O)c3ccccc32)cc1` displayed a z-score of 0.197.

`CCOc1ccc(C(=S)N2CCOCC2)cc1OCC` came in with a z-score of -0.0319.

Regarding `O=C(CSc1nnnn1-c1ccc2c(c1)OCCO2)OC1CCCCC1`, the z-score is -2.27.

With `Cc1ccc2[nH]cc(CCCN3C(=O)c4ccccc4C3=O)c2c1`, the z-score was 1.63.

The compound `Cc1nnc(SCC(=O)N2CCN(S(=O)(=O)c3ccccc3)CC2)[nH]c1=O` had a z-score of -0.0349.

In the case of `Cc1cccc(NC(=O)CSc2nnc(-c3ccc(S(=O)(=O)N4CCCC4)cc3)o2)c1`, the z-score was -0.704.

Turning to `Cc1[nH]n2c(=O)cc(C(C)C)nc2c1-c1ccccc1`, the z-score was -0.963.

The compound `CN(Cc1ccccc1)c1nc2c(c(=O)[nH]c(=O)n2C)n1CCCSc1ncccn1` had a z-score of 0.398.

Take `CCCN(CCC)C(=O)c1c(NC(=O)CC)sc2c1CCCCC2`: the z-score is -0.257.

As for `O=C(N1CCN(c2ccc(F)cc2)CC1)C1(c2cccs2)CCOCC1`, the z-score is -0.652.

`COc1ccc(C2OCC3(CO2)SC(N)=NC3=O)cc1` (stereo unspecified) registered a z-score of -0.146.

Compound `CS(=O)(=O)NCCCc1ccccc1` gave a z-score of -0.0519.

In the case of `CCOC(=O)c1c(NC(=S)NCCc2ccccc2)sc2c1CC(C(C)C)OC2` (stereo unspecified), the z-score is active: 3.42.

`CCOc1ccc(C2Nc3ccc4ccccc4c3-c3c2c(=O)oc2ccccc32)cc1` (stereo unspecified) displayed a z-score of -0.29.

`CC(=O)Nc1ncc2c(n1)CC(c1ccco1)CC2=O` (stereo unspecified) came in with a z-score of 0.634.

Compound `COc1ccc(-c2ccnc(SCC(=O)c3ccc(Cl)cc3)n2)cc1` displayed a z-score of -0.334.

In turn, `COc1cccc(N(C(=O)c2ccco2)C(C(=O)NC2CCCC2)c2cccnc2)c1` (stereo unspecified) had a z-score of 0.962.

`Cc1nc(NC(=O)c2cc(-n3cnnc3)ccc2Cl)ccc1Br` registered a z-score of -0.225.

As for `O=C(Nc1ccccc1N1CCN(C(=O)c2ccc(Cl)cc2)CC1)c1cc2ccccc2o1`, the z-score was -0.264.

The compound `CCc1ccc2[nH]c(=O)c(CN(CCN(C)C)C(=O)Nc3ccccc3)cc2c1` showed a z-score of -0.0486.

Compound `Cc1cc(Cl)c(S(=O)(=O)Nc2ccccn2)cc1OCC(N)=O` came in with a z-score of 0.282.

The compound `Cn1c2c(c(=O)n(C)c1=O)C(c1ccc(O)cc1)Nc1ccccc1O2` (stereo unspecified) came in with a z-score of -0.242.

Consider `Cc1nc2c3ccccc3nc(SCC(=O)N3CC(C)CC(C)C3)n2n1` (stereo unspecified), for which the z-score is -0.279.

`CC1CC(C)CN(C(=S)Nc2ccc(OC(F)F)cc2)C1` (stereo unspecified) had a z-score of -0.115.

On to `CC1=Nn2c(nnc2C2CCCCC2)SC1`, for which the z-score was -0.0727.

The compound `Cc1sc2c(c1C)c(=O)nc1scc(C)n12` had a z-score of 0.0939.

`COc1ccc(NS(=O)(=O)c2cc(NC(=O)c3cnc(C)cn3)ccc2N2CCCC2)cc1` displayed a z-score of 0.145.

Take `CN1CCC(N(C)C(=S)Nc2ccc(SC(F)F)cc2)CC1`: the z-score was -0.0288.

In the case of `CC1CCN(S(=O)(=O)c2ccc(S(=O)(=O)NCC3COCCO3)cc2)CC1` (stereo unspecified), the z-score was -0.165.

Regarding `COc1cc(C2Nc3cccc4cccc(c34)N2)cc(OC)c1O`, the z-score was -0.213.

The compound `Cn1c2c(c(=O)n(C)c1=O)C(c1ccccc1Cl)CC(=O)N2` (stereo unspecified) came in with a z-score of -0.455.

`CC(C)(C)NC(=O)C(Cc1ccccc1)NS(=O)(=O)c1cccc2nsnc12` (stereo unspecified): the z-score is -0.0796.

Source of the values: PubChem BioAssay AID488969 (Vanderbilt High Throughput Screening Facility, 2010).
